Measurements from the supplement of paper PMC3334620.
The full ranking holds about 33,000 sequences; the median of “E-score (-0.5 to 0.5)” is about -0.01, and the highest 2% start at about 0.26. This is one part of the list.

The sequences below were run against Ste12 (UniProt P13574) (assay: PBM E-score (8-mer binding enrichment) (E-score (-0.5 to 0.5)); higher = stronger / more preferred TF binding; most listed sequences are background and not binding sites). Conditions: protein concentration: 200 nM; construct: GST-DNA-binding domain.
Procedure, shortened: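 Universal all-10-mer Agilent arrays, double-stranded by primer extension on fresh or once-stripped slides, were probed with about 100-200 nM GST-tagged yeast transcription factors made by PURExpress. Fluorescent anti-GST detected bound protein, and masliner normalised the scans. E-scores from the Universal PBM Analysis Suite were given to each ungapped eight-base word pooled with its reverse complement.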
With GTTATACA the “PBM E-score” value was -0.0393.
For GGGTAAAC, the “PBM E-score” value was 0.119.
In the case of GAACAGTA, the “PBM E-score” value is reported as -0.0707.
For ACCAGGGT, the “PBM E-score” value was -0.0707.
CAGAATGG was tested, and the “PBM E-score” value was 0.0221.
For ACCTTGAG, the “PBM E-score” value was 0.00829.
In the case of AACTCCGC, the “PBM E-score” value is reported as -0.0808.
In the case of CAGACCTA, the “PBM E-score” value is reported as -0.0484.
In the case of CAACGACA, the “PBM E-score” value is reported as 0.00954.
For CCTTAGTA, the “PBM E-score” value was -0.123.
In the case of ACGGGGAG, the “PBM E-score” value is reported as 0.109.
In the case of CGTAACAG, the “PBM E-score” value is reported as 0.205.
With ATTCAAAG the “PBM E-score” value was 0.145.
In the case of CGCGGGTC, the “PBM E-score” value is reported as 0.128.
In the case of CGCAAGGC, the “PBM E-score” value is reported as 0.049.
For ATCCTACA, the “PBM E-score” value was 0.00602.
In the case of CGGAGCAC, the “PBM E-score” value is reported as -0.115.
With ATCATGCG the “PBM E-score” value was 0.0662.
With AACGTCAC the “PBM E-score” value was -0.0238.
For GGGCGCAA, the “PBM E-score” value was 0.085.
For GGATTATA, the “PBM E-score” value was 0.0754.
With GATAAATA the “PBM E-score” value was 0.215.
For GGCTAAAC, the “PBM E-score” value was 0.188.
For TGGTTGAA, the “PBM E-score” value was 0.0241.
In the case of CACCGAAG, the “PBM E-score” value is reported as -0.093.
For ATGATCCC, the “PBM E-score” value was 0.0717.
For AGTTCGAG, the “PBM E-score” value was 0.0795.
For AAATTCAC, the “PBM E-score” value was 0.187.
For ATGCCCAC, the “PBM E-score” value was 0.0583.
In the case of CGGTTCTA, the “PBM E-score” value is reported as -0.0133.
For CTCCAACC, the “PBM E-score” value was 0.149.
For CACCGCCA, the “PBM E-score” value was 0.0129.
In the case of GCGTCGCC, the “PBM E-score” value is reported as -0.0467.
In the case of CAATTGCC, the “PBM E-score” value is reported as -0.0411.
In the case of GGATCACA, the “PBM E-score” value is reported as -0.155.
TAGAGAGA was tested, and the “PBM E-score” value was -0.164.
In the case of CCCCAGGG, the “PBM E-score” value is reported as -0.178.
With ACAAATCA the “PBM E-score” value was 0.0844.
With AGAGATGG the “PBM E-score” value was 0.048.
With GTGATAAC the “PBM E-score” value was 0.091.
With CAGACCCC the “PBM E-score” value was -0.338.
In the case of ACCTCTGG, the “PBM E-score” value is reported as 0.0713.
In the case of AAACCCTA, the “PBM E-score” value is reported as 0.0499.
For AGTAACAG, the “PBM E-score” value was 0.103.
With GACGAATC the “PBM E-score” value was 0.00366.
In the case of CGCTCATA, the “PBM E-score” value is reported as -0.0661.
For AGATACCC, the “PBM E-score” value was -0.0442.
In the case of AAGCCCGG, the “PBM E-score” value is reported as -0.0297.
With ACATGAGC the “PBM E-score” value was -0.0857.
For GAACGATA, the “PBM E-score” value was -0.00391.
CGGGGGCA was tested, and the “PBM E-score” value was -0.0771.
CAACCAAG was tested, and the “PBM E-score” value was -0.00981.
With CTCGAAAA the “PBM E-score” value was 0.0773.
CAAAAACG was tested, and the “PBM E-score” value was 0.177.
For ACTCTTCA, the “PBM E-score” value was 0.04.
With ACCGGTTG the “PBM E-score” value was -0.0726.
CGTCTCTC was tested, and the “PBM E-score” value was -0.016.
For GTGACGCA, the “PBM E-score” value was -0.181.
With AAGTATAC the “PBM E-score” value was 0.0374.
ACGTCTGG was tested, and the “PBM E-score” value was -0.129.
With ACTCCCCC the “PBM E-score” value was -0.202.
ACTTGAAC was tested, and the “PBM E-score” value was -0.0517.
In the case of CACTAATG, the “PBM E-score” value is reported as 0.122.
In the case of ACCAGTCT, the “PBM E-score” value is reported as -0.25.
With ATCTTAGA the “PBM E-score” value was 0.226.
With ATTATGTA the “PBM E-score” value was 0.117.
In the case of ATACGCTA, the “PBM E-score” value is reported as 0.0954.
In the case of AGACGGAG, the “PBM E-score” value is reported as -0.164.
With GATATGAA the “PBM E-score” value was 0.15.
CACAGCGA was tested, and the “PBM E-score” value was 0.0278.
In the case of CCGTTACC, the “PBM E-score” value is reported as 0.0387.
With GTCGAATA the “PBM E-score” value was 0.0131.
With CATAATGG the “PBM E-score” value was 0.0987.
With GTAAAAAA the “PBM E-score” value was 0.217.
TGGCTAAA was tested, and the “PBM E-score” value was 0.0428.
With GTGCGCCA the “PBM E-score” value was -0.268.
With GATCAAAA the “PBM E-score” value was 0.194.
With AAACGAAG the “PBM E-score” value was 0.192.
For CGACGTTC, the “PBM E-score” value was -0.233.
CTCTGCAA was tested, and the “PBM E-score” value was -0.0864.
For ATTCCTAA, the “PBM E-score” value was 0.136.
For TGTCATAA, the “PBM E-score” value was 0.129.
GCGACTCC was tested, and the “PBM E-score” value was -0.308.
AGCAATGC was tested, and the “PBM E-score” value was -0.115.
For AGTCGATA, the “PBM E-score” value was 0.0748.
For AGATGGGA, the “PBM E-score” value was 0.0549.
With AGACAGAT the “PBM E-score” value was -0.0621.
With ATAAGGCC the “PBM E-score” value was -0.263.
With AGTCTGGG the “PBM E-score” value was -0.0681.
For AACACGGC, the “PBM E-score” value was 0.0148.
In the case of AACTCTTG, the “PBM E-score” value is reported as -0.111.
With CCTTGTTA the “PBM E-score” value was -0.0774.
ATACCATC was tested, and the “PBM E-score” value was -0.061.
In the case of ATCTGATG, the “PBM E-score” value is reported as 0.109.
With GCGGAAAC the “PBM E-score” value was 0.0514.
With ATAATCGG the “PBM E-score” value was 0.173.
In the case of ACGGTGTA, the “PBM E-score” value is reported as -0.073.
For CGTCCCCC, the “PBM E-score” value was -0.361.
In the case of AGTCGTTA, the “PBM E-score” value is reported as 0.0846.
For CTAGTTGC, the “PBM E-score” value was 0.00134.
GCGCACAA was tested, and the “PBM E-score” value was 0.103.
AAGAATAT was tested, and the “PBM E-score” value was 0.0884.
For ACAGTGCG, the “PBM E-score” value was -0.14.
With GAGCGATA the “PBM E-score” value was -0.00925.
In the case of ACTCCTCG, the “PBM E-score” value is reported as 0.0579.
For ATCTCGAC, the “PBM E-score” value was 0.0726.
For CGCAGATA, the “PBM E-score” value was -0.0283.
In the case of GAATGGCA, the “PBM E-score” value is reported as -0.068.
For CAGGAGGA, the “PBM E-score” value was -0.222.
With GACTACAA the “PBM E-score” value was -0.102.
With ACGAGCGA the “PBM E-score” value was 0.0716.
With TCCGTACA the “PBM E-score” value was 0.0902.
For AGGCAGTA, the “PBM E-score” value was -0.082.
For TAACGAAA, the “PBM E-score” value was 0.298.
In the case of GAACATAC, the “PBM E-score” value is reported as 0.00565.
With ACAAAAAC the “PBM E-score” value was 0.201.
GGCAACAC was tested, and the “PBM E-score” value was -0.0149.
For GTATCTAA, the “PBM E-score” value was 0.204.
CCCCCGAG was tested, and the “PBM E-score” value was -0.0168.
For AGGCCCGG, the “PBM E-score” value was -0.253.
For AGAAGTTA, the “PBM E-score” value was 0.0794.
In the case of AGCGTACA, the “PBM E-score” value is reported as -0.282.
With ATCATGGG the “PBM E-score” value was 0.0931.
With CCCAATCG the “PBM E-score” value was -0.00616.
In the case of ACCAGCGT, the “PBM E-score” value is reported as -0.236.
CACAAGCA was tested, and the “PBM E-score” value was -0.145.
For GGGCAACA, the “PBM E-score” value was -0.00131.
With GATGATAA the “PBM E-score” value was 0.143.
ATTCAAGG was tested, and the “PBM E-score” value was -0.0529.
With AACTGAGA the “PBM E-score” value was -0.0335.
In the case of AAAAGGTG, the “PBM E-score” value is reported as -0.0244.
In the case of ATACTAGG, the “PBM E-score” value is reported as 0.119.
For ATCACGCG, the “PBM E-score” value was -0.0384.
With AAGGGCCC the “PBM E-score” value was -0.11.
With GATCATCC the “PBM E-score” value was -0.18.
For ACAATTAG, the “PBM E-score” value was 0.0572.
With CCCGCACC the “PBM E-score” value was 0.0672.
In the case of AACCGGAT, the “PBM E-score” value is reported as 0.136.
For ATGTTCCG, the “PBM E-score” value was 0.0569.
For GGGGTTAA, the “PBM E-score” value was -0.0545.
CGGACGGA was tested, and the “PBM E-score” value was -0.213.
For AGAGACAT, the “PBM E-score” value was 0.0522.
In the case of AGTGACGA, the “PBM E-score” value is reported as 0.178.
In the case of CACGTCCG, the “PBM E-score” value is reported as -0.138.
AGAGTTTA was tested, and the “PBM E-score” value was 0.12.
With GAGTGTAC the “PBM E-score” value was -0.112.
In the case of GTAGCACA, the “PBM E-score” value is reported as -0.0739.
ACCAATCC was tested, and the “PBM E-score” value was 0.202.
AAACTGGT was tested, and the “PBM E-score” value was 0.212.
For CCTTGAAC, the “PBM E-score” value was -0.125.
With GACACTGA the “PBM E-score” value was 0.105.
In the case of ACAAGGCC, the “PBM E-score” value is reported as -0.177.
For AGCTGGAT, the “PBM E-score” value was -0.0353.
For CTTATACA, the “PBM E-score” value was 0.0205.
With CTGATTTA the “PBM E-score” value was 0.0833.
For CTCAAATA, the “PBM E-score” value was -0.0402.
With GGTAAGAC the “PBM E-score” value was -0.0504.
In the case of CTTGCATC, the “PBM E-score” value is reported as -0.0646.
In the case of ATGCCGCC, the “PBM E-score” value is reported as -0.149.
For CATGCAAC, the “PBM E-score” value was 0.185.
In the case of AAAAGACC, the “PBM E-score” value is reported as 0.127.
In the case of CCAGCGAC, the “PBM E-score” value is reported as -0.0616.
For CTAATAAC, the “PBM E-score” value was 0.0434.
In the case of AGTATAGG, the “PBM E-score” value is reported as 0.0154.
In the case of AATGCGTA, the “PBM E-score” value is reported as 0.0162.
For GTGCGTGA, the “PBM E-score” value was 0.0413.
With ACTCTTTA the “PBM E-score” value was -0.106.
For CAAGGCTA, the “PBM E-score” value was -0.114.
ACATCCTA was tested, and the “PBM E-score” value was -0.0862.
With CTCGCGCC the “PBM E-score” value was -0.0247.
For AGCGACTA, the “PBM E-score” value was -0.043.
With TAGCACCA the “PBM E-score” value was -0.083.
